Reference: patent US20180086837A1 (Ablynx, published 2018)
Substitutions are numbered along the chain they refer to.

Columns and labels:
[1] = target: T1, cynomolgus CXCR4 (cynomolgus, UniProt Q28474 1-352); test: flow cytometry, transfected HEK293T cells, 100 nM, normalised to 12G5
T1 construct: whole, on cells; also called cyno CXCR4

[2] = target: human CXCR4 (human, UniProt P61073 1-352); test: cell-based or functional assay
[3] = target: human CXCR4 and human CD4 co-expressed on the same cell surface (human, UniProt P61073 1-352); test: cell-based or functional assay
[4] = target: T2, recombinant human CD4 (ImmunoDiagnostics, cat#7001) (human, UniProt P01730 26-396, limits assumed); test: phage ELISA on coated recombinant human CD4, monoclonal phage supernatant, anti-M13-HRP
T2 construct: Bought recombinant protein; also called biotinylated CD4

B1: Nanobody 281D4 (VHH)
VHH: EVQLVESGGGLVQAGGSLRLSCAASGGTFNNYAMGWFRRAPGKEREFVAAISRSGVRTGVSALYGDSVKDRFTISRDNAKNTLYLQMNKMKPEDTAVYTCAASAIGSGALRRFEYDSSGQGTQVTVSS
notes: Purified Nanobody
With B1 the “% binding relative to hCXCR4” value [1] was 85.9%.

B2: Nanobody 281A5 (VHH)
VHH: B1 VHH with G27R, S52T, T58S, L63I, K89S, M90L, S117Y
notes: Purified Nanobody
B2 was tested, and the “IC50, HIV-1 CM237 (clade B) infectivity in PBMC” value [2] was 18 nM, the “IC50, HIV-1 UG270 (clade D) infectivity in PBMC” value [2] was 4 nM and the “IC90, HIV-1 CM237 (clade B) infectivity in PBMC” value [2] was 49 nM. The “IC90, HIV-1 NL4.3 (X4) infectivity in PBMC” value [2] was 59.5 nM and the “IC90, HIV-1 UG270 (clade D) infectivity in PBMC” value [2] was 7.33 nM.

B3: Nanobody 283F1 (VHH)
VHH: EVQLVESGGGLVQAGGSLRLSCVASVNIFGSIAMAWYRQAPGKQRNLVASISSGGRINYADSRKGRFTISRDNTKNTVHLQMNSLEPEDTAVYYCAAGRIGQRTLTFTPDYWGQGTQVTVSS
notes: Purified Nanobody
B3 was tested, and the “IC50, HIV-1 CM237 (clade B) infectivity in PBMC” value [2] was 1.2 nM, the “IC90, HIV-1 NL4.3 (X4) infectivity in PBMC” value [2] was 3.6 nM and the “IC90, HIV-1 UG270 (clade D) infectivity in PBMC” value [2] was 8.1 nM.

B4: 03F11-9GS-281F12 (bispecific antibody, not shown: small tags and cut ends)
chain: EVQLVESGGGSVQPGGSLTLSCGTSGRTFNVMGWFRQAPGKEREFVAAVRWSSTGIYYTQYADSVKSRFTISRDNAKNTVYLEMNSLKPEDTAVYYCAADTYNSNPARWDGYDFRGQGTQVTVSSGGGGSGGGGSEVQLVESGGGLVQAGDSLRLSCAASGRAFSRYAMGWFRQAPGKEREFVAAIGWGPSKTNYADSVKGRFTISRDNAKNTVYLQMNTLKPEDTAVYSCAAKFVNTDSTWSRSEMYTYWGQGTQVTVSS
With B4 the “IC50, MT-4 + NL4.3 (X4)” value [3] was 14.9 nM, the “IC50, PBMC + BaL (R5)” value [3] was greater than 666 nM and the “IC50, PBMC + NL4.3 (X4)” value [3] was 17 nM. The “IC50, U87 + NL4.3 (X4)” value [3] was greater than 3330 nM.

B5: 03F11-25GS-281F12 (bispecific antibody, not shown: small tags and cut ends)
chain: EVQLVESGGGSVQPGGSLTLSCGTSGRTFNVMGWFRQAPGKEREFVAAVRWSSTGIYYTQYADSVKSRFTISRDNAKNTVYLEMNSLKPEDTAVYYCAADTYNSNPARWDGYDFRGQGTQVTVSSGGGGSGGGGSGGGGSGGGGSGGGGSEVQLVESGGGLVQAGDSLRLSCAASGRAFSRYAMGWFRQAPGKEREFVAAIGWGPSKTNYADSVKGRFTISRDNAKNTVYLQMNTLKPEDTAVYSCAAKFVNTDSTWSRSEMYTYWGQGTQVTVSS
In the case of B5, the “IC50, MT-4 + NL4.3 (X4)” value [3] is reported as 9.2 nM, the “IC50, PBMC + BaL (R5)” value [3] is reported as 383 nM and the “IC50, PBMC + NL4.3 (X4)” value [3] is reported as 8.7 nM. For the same binder, the “IC50, U87 + NL4.3 (X4)” value [3] was greater than 3330 nM.

B6: Nanobody 01E2 (VHH)
VHH: EVQLVESGGGLVQAGGSLRLSCAASGRTSASYSMGWFRQAPGKEREFVAAISWSGDETSYADSVKGRFTIARGNAKNTVYLQMNSLKSEDTAIYYCAGDRWWRPAGLQWDYWGQGTQVTVSS
notes: Anti-human CD4 Nanobody; not shown: C-terminal myc-His6 tag
B6: binds [4].

B7: Nanobody 01H12 (VHH)
VHH: EVQLVESGGGLVQAGGSLKLSCAASRSILDFNAMGWYRQAPGKQREWVTTIARAGATKYADSVKGRFSISRDNAKNTVYLQMSSLKPEDTATYYCNARVFDLPNDYWGQGTQVTVSS
notes: as for B6
B7: binds [4].
